# Laboratory results published in the supplement of paper PMC10037445.
# Values joined by “and” are separate entries in the source; they are usually repeats but may differ in a detail not shown here. Identical values can stand only once. Whole data set: some 2,900 compounds, median “NF-kB SEAP reporter activity, fold change vs agonist alone” near 0.99, cut for the highest 2% near 2.6. This is one part of the list.
# Legend:
# RAW-Dual [1] = assay: NF-kB SEAP reporter activity, fold change vs agonist alone; higher = enhanced NF-kB activity
# Method in brief: (§1)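 RAW-Dual macrophages were seeded in DMEM at 50,000 cells/well in 384-well plates, given 50 nL of library stock by pin tool, and given a PRR agonist 1 h later. Plates were held at 37 °C, 5% CO2 for 20 hours, after which supernatant was read for IRF by QuantiLuc luminescence and for NF-κB by QuantiBlue absorbance at 620 nm. Reporter activity is expressed as fold change over wells that received agonist alone. A well was called cytotoxic when IncuCyte confluency fell below 70% of agonist controls in both mask sets.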
# RAW-Dual [2] = assay: NF-kB SEAP reporter activity, fold change vs agonist alone; cytotoxicity flag (confluency mask): not cytotoxic; higher = enhanced NF-kB activity
# Method in brief: as §1
# RAW-Dual [3] = assay: NF-kB SEAP reporter activity, fold change vs agonist alone; cytotoxicity flag (confluency mask): cytotoxic (confluency <70% of control); higher = enhanced NF-kB activity
# Method in brief: as §1
# [4] = library stock concentration (final ~1000-fold dilution): 10 mM water, cytotoxicity flag (confluency mask): not cytotoxic, agonist: Imiquimod (TLR7) […]
# [5] = library stock concentration (final ~1000-fold dilution): 10 mM water, cytotoxicity flag (confluency mask): not cytotoxic, agonist: MPLA (TLR4) […]
# [6] = agonist: ODN 1826 (TLR9) 0.5 ug/mL
# [7] = agonist: Pam2CSK4 (TLR2/6) 0.1 ug/mL
# [8] = agonist: Pam3CSK4 (TLR2/1) 0.1 ug/mL
# [9] = library stock concentration (final ~1000-fold dilution): 10 mM, cytotoxicity flag (confluency mask): not cytotoxic, agonist: Imiquimod (TLR7) […]
# [10] = library stock concentration (final ~1000-fold dilution): 10 mM, cytotoxicity flag (confluency mask): not cytotoxic, agonist: MPLA (TLR4) […]
# [11] = library stock concentration (final ~1000-fold dilution): 10 mM, cytotoxicity flag (confluency mask): cytotoxic (confluency <70% of control), agonist: Imiquimod (TLR7) […]
# [12] = library stock concentration (final ~1000-fold dilution): 10 mM, cytotoxicity flag (confluency mask): cytotoxic (confluency <70% of control), agonist: MPLA (TLR4) […]
smiles,measurement,setting,value
CC(O)(P(=O)(O)O)P(=O)(O)O,NF-kB SEAP reporter activity,RAW-Dual [1]; [4],0.953
same,NF-kB SEAP reporter activity,RAW-Dual [1]; [5],1.04
CC(O)(P(=O)(O)O)P(=O)(O)O (library stock concentration (final ~1000-fold dilution): 10 mM water),NF-kB SEAP reporter activity,RAW-Dual [2]; agonist: LPS (TLR4) 0.1 ug/mL,1.13
same,NF-kB SEAP reporter activity,RAW-Dual [2]; [6],1.15
same,NF-kB SEAP reporter activity,RAW-Dual [2]; [7],1.25
same,NF-kB SEAP reporter activity,RAW-Dual [2]; [8],1.33
C=C1CCC2C(C)(CO)C(O)CC[C@@]2(C)[C@@H]1C/C=C1/C(=O)OCC1O (stereo not given in full) (library stock concentration (final ~1000-fold dilution): 10 mM),NF-kB SEAP reporter activity,RAW-Dual [2]; agonist: LPS (TLR4) 0.1 ug/mL,0.32
same,NF-kB SEAP reporter activity,RAW-Dual [2]; [6],0.206
same,NF-kB SEAP reporter activity,RAW-Dual [2]; [7],0.0769
same,NF-kB SEAP reporter activity,RAW-Dual [2]; [8],0.161
C=C1CCC2C(C)(CO)C(O)CC[C@@]2(C)[C@@H]1C/C=C1/C(=O)OCC1O (stereo not given in full),NF-kB SEAP reporter activity,RAW-Dual [1]; [9],0.287
same,NF-kB SEAP reporter activity,RAW-Dual [1]; [10],0.305
O=c1cc(-c2ccc(O)cc2)oc2cc(O)ccc12 (library stock concentration (final ~1000-fold dilution): 10 mM),NF-kB SEAP reporter activity,RAW-Dual [2]; agonist: LPS (TLR4) 0.1 ug/mL,1.57
same,NF-kB SEAP reporter activity,RAW-Dual [2]; [6],1.18
same,NF-kB SEAP reporter activity,RAW-Dual [2]; [7],0.728
same,NF-kB SEAP reporter activity,RAW-Dual [2]; [8],0.927
O=c1cc(-c2ccc(O)cc2)oc2cc(O)ccc12,NF-kB SEAP reporter activity,RAW-Dual [1]; [9],1.18
same,NF-kB SEAP reporter activity,RAW-Dual [1]; [10],1.35
CC1(C)CNc2cc(NC(=O)c3cccnc3NCc3ccncc3)ccc21 (library stock concentration (final ~1000-fold dilution): 10 mM),NF-kB SEAP reporter activity,RAW-Dual [2]; agonist: LPS (TLR4) 0.1 ug/mL,1.52 and 1.16
same,NF-kB SEAP reporter activity,RAW-Dual [2]; [6],0.467 and 0.857
same,NF-kB SEAP reporter activity,RAW-Dual [2]; [7],0.615 and 0.59
same,NF-kB SEAP reporter activity,RAW-Dual [2]; [8],0.484 and 0.66
CN(C/C=C/C#CC(C)(C)C)Cc1cccc2ccccc12.Cl (library stock concentration (final ~1000-fold dilution): 10 mM),NF-kB SEAP reporter activity,RAW-Dual [2]; agonist: LPS (TLR4) 0.1 ug/mL,3.51
same,NF-kB SEAP reporter activity,RAW-Dual [2]; [6],0.849
same,NF-kB SEAP reporter activity,RAW-Dual [2]; [7],0.948
same,NF-kB SEAP reporter activity,RAW-Dual [2]; [8],1.3
CN(C/C=C/C#CC(C)(C)C)Cc1cccc2ccccc12.Cl,NF-kB SEAP reporter activity,RAW-Dual [1]; [9],1.56
same,NF-kB SEAP reporter activity,RAW-Dual [1]; [10],2.08
O=C1Cc2c([nH]c3ccc(Br)cc23)-c2ncccc2N1 (library stock concentration (final ~1000-fold dilution): 10 mM),NF-kB SEAP reporter activity,RAW-Dual [2]; agonist: LPS (TLR4) 0.1 ug/mL,1.5
same,NF-kB SEAP reporter activity,RAW-Dual [2]; [6],2.36
same,NF-kB SEAP reporter activity,RAW-Dual [2]; [7],1.36
same,NF-kB SEAP reporter activity,RAW-Dual [2]; [8],1.84
O=C1Cc2c([nH]c3ccc(Br)cc23)-c2ncccc2N1,NF-kB SEAP reporter activity,RAW-Dual [1]; [9],1.54
same,NF-kB SEAP reporter activity,RAW-Dual [1]; [10],2.06
COc1ccc2cc(OCC3(C(=O)O)CN(C(=O)c4ccc(F)cc4)C3)ccc2c1 (library stock concentration (final ~1000-fold dilution): 10 mM),NF-kB SEAP reporter activity,RAW-Dual [2]; agonist: LPS (TLR4) 0.1 ug/mL,1.16
same,NF-kB SEAP reporter activity,RAW-Dual [2]; [6],0.961
same,NF-kB SEAP reporter activity,RAW-Dual [2]; [7],1
same,NF-kB SEAP reporter activity,RAW-Dual [2]; [8],0.995
COc1ccc2cc(OCC3(C(=O)O)CN(C(=O)c4ccc(F)cc4)C3)ccc2c1,NF-kB SEAP reporter activity,RAW-Dual [1]; [9],0.937
same,NF-kB SEAP reporter activity,RAW-Dual [1]; [10],1.07
COCCn1c2c([n+](Cc3cnccn3)c1C)C(=O)c1ccccc1C2=O (library stock concentration (final ~1000-fold dilution): 10 mM),NF-kB SEAP reporter activity,RAW-Dual [3]; agonist: LPS (TLR4) 0.1 ug/mL,0.238
same,NF-kB SEAP reporter activity,RAW-Dual [3]; [6],1.22
same,NF-kB SEAP reporter activity,RAW-Dual [3]; [7],0.377
same,NF-kB SEAP reporter activity,RAW-Dual [3]; [8],0.161
COCCn1c2c([n+](Cc3cnccn3)c1C)C(=O)c1ccccc1C2=O,NF-kB SEAP reporter activity,RAW-Dual [1]; [11],0.201
same,NF-kB SEAP reporter activity,RAW-Dual [1]; [12],0.182
Cc1cc(-c2ccc(CC(=O)Nc3ccc(-c4cccnc4)cc3)cc2)ccn1 (library stock concentration (final ~1000-fold dilution): 10 mM),NF-kB SEAP reporter activity,RAW-Dual [2]; agonist: LPS (TLR4) 0.1 ug/mL,1.7
same,NF-kB SEAP reporter activity,RAW-Dual [2]; [6],1.32
same,NF-kB SEAP reporter activity,RAW-Dual [2]; [7],1
same,NF-kB SEAP reporter activity,RAW-Dual [2]; [8],1.19
Cc1cc(-c2ccc(CC(=O)Nc3ccc(-c4cccnc4)cc3)cc2)ccn1,NF-kB SEAP reporter activity,RAW-Dual [1]; [9],1.08
same,NF-kB SEAP reporter activity,RAW-Dual [1]; [10],1.26
O=C(NC1=CC(=O)[C@H]2O[C@H]2[C@H]1O)c1ccccc1O (library stock concentration (final ~1000-fold dilution): 10 mM),NF-kB SEAP reporter activity,RAW-Dual [2]; agonist: LPS (TLR4) 0.1 ug/mL,0.727
same,NF-kB SEAP reporter activity,RAW-Dual [2]; [6],0.951
same,NF-kB SEAP reporter activity,RAW-Dual [2]; [7],0.806
same,NF-kB SEAP reporter activity,RAW-Dual [2]; [8],0.551
O=C(NC1=CC(=O)[C@H]2O[C@H]2[C@H]1O)c1ccccc1O,NF-kB SEAP reporter activity,RAW-Dual [1]; [9],1
same,NF-kB SEAP reporter activity,RAW-Dual [1]; [10],1.08
COc1ccc(C2CC(c3ccccc3)=NN2c2ccc(S(N)(=O)=O)cc2)cc1 (stereo not given) (library stock concentration (final ~1000-fold dilution): 10 mM),NF-kB SEAP reporter activity,RAW-Dual [2]; agonist: LPS (TLR4) 0.1 ug/mL,0.546
same,NF-kB SEAP reporter activity,RAW-Dual [2]; [6],0.328
same,NF-kB SEAP reporter activity,RAW-Dual [2]; [7],0.3
same,NF-kB SEAP reporter activity,RAW-Dual [2]; [8],0.219
COc1ccc(C2CC(c3ccccc3)=NN2c2ccc(S(N)(=O)=O)cc2)cc1 (stereo not given),NF-kB SEAP reporter activity,RAW-Dual [1]; [9],0.545
same,NF-kB SEAP reporter activity,RAW-Dual [1]; [10],0.604
CCCC(=O)[O-].[Na+] (library stock concentration (final ~1000-fold dilution): 10 mM water),NF-kB SEAP reporter activity,RAW-Dual [2]; agonist: LPS (TLR4) 0.1 ug/mL,1.21
same,NF-kB SEAP reporter activity,RAW-Dual [2]; [6],1.1
same,NF-kB SEAP reporter activity,RAW-Dual [2]; [7],1.08
same,NF-kB SEAP reporter activity,RAW-Dual [2]; [8],1.21
CCCC(=O)[O-].[Na+],NF-kB SEAP reporter activity,RAW-Dual [1]; [4],0.965
same,NF-kB SEAP reporter activity,RAW-Dual [1]; [5],1.02
Cc1cc(Nc2cc(N3CCN(C)CC3)nc(/C=C/c3ccccc3)n2)n[nH]1 (library stock concentration (final ~1000-fold dilution): 10 mM),NF-kB SEAP reporter activity,RAW-Dual [3]; agonist: LPS (TLR4) 0.1 ug/mL,0.459
same,NF-kB SEAP reporter activity,RAW-Dual [3]; [6],0.191
same,NF-kB SEAP reporter activity,RAW-Dual [3]; [7],0.127
same,NF-kB SEAP reporter activity,RAW-Dual [3]; [8],0.201
Cc1cc(Nc2cc(N3CCN(C)CC3)nc(/C=C/c3ccccc3)n2)n[nH]1,NF-kB SEAP reporter activity,RAW-Dual [1]; [11],1.08
same,NF-kB SEAP reporter activity,RAW-Dual [1]; [12],0.8
COCCOc1ccc2c(c1)ncn2-c1ccc2cccc(N3CCC(N)CC3)c2n1 (library stock concentration (final ~1000-fold dilution): 10 mM),NF-kB SEAP reporter activity,RAW-Dual [3]; agonist: LPS (TLR4) 0.1 ug/mL,0.593
same,NF-kB SEAP reporter activity,RAW-Dual [3]; [6],0.758
same,NF-kB SEAP reporter activity,RAW-Dual [3]; [7],0.862
same,NF-kB SEAP reporter activity,RAW-Dual [3]; [8],1.32
